84 compounds from PubChem BioAssay AID1346428 (National Center for Advancing Translational Sciences (NCATS), 2018) can be followed below.

SMILES strings stand for the structures. Out of some 48,000 compounds screened, about 1,200 (2.5%) were called active. About 2% were inconclusive and are not listed.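 How the source made its calls: active means activation of at least 60% and not above a set upper limit (about 1 call in 100 departs from these limits); inconclusive means activation of 40% to 60%, or above that upper limit; inactive means activation under 40%.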 The list shows a part of the results.

UniProt O75388, sequence (O75388 whole entry, looked up): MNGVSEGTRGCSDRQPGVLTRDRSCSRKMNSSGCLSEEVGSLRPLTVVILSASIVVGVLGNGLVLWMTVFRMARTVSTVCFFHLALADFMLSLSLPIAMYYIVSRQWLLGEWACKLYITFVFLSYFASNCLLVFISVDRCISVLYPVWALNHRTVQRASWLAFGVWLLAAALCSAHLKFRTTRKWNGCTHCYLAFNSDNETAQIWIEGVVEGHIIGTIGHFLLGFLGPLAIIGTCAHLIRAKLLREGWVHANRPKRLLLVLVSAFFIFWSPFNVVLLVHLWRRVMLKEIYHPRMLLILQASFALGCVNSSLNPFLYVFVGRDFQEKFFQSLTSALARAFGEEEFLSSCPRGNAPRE

The target in the assay is Probable G-protein coupled receptor 32 (Homo sapiens) (UniProt O75388). Kind of assay: qHTS for Agonists of Human Resolvin D1 Receptor DRV1. Further: 0% is about no effect. As to conditions: CHO-K1 GPR32 beta-arrestin PathHunter luminescence, 90 min; at 76.9 µM; stronger effect = higher value; zero percent set by DMSO-only wells. The method in brief:
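Readings come from a cell-based beta-arrestin complementation format: CHO-K1 GPR32 stable cells (2,500/well) treated 90 min with compounds, then beta-Gal substrate added for 1 h before chemiluminescence imaging.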
In the case of `CCCN(CCC)S(=O)(=O)c1ccc(C(=O)O)cc1`, the activation was inactive: 2.77%.
For the compound `CCc1ccc(S(=O)(=O)c2cn(C)c3cc(OC)c(OC)cc3c2=O)cc1`, the activation is inactive: 19.3%.
For `CC(C)c1ccc(NC(=O)CN2C(=O)c3cccc4cccc2c34)cc1`, the activation was inactive: 10.1%.
The same measure for `CCC1CCc2c(sc(NC(=O)C3c4ccccc4Oc4ccccc43)c2C#N)C1` (centres undefined): inactive: 3.14%; for `Cc1cc(Nc2cc(Cl)ccc2C)n2nc(Cc3ccccc3)nc2n1`: inactive: -12%.
With `Cc1ccc(C)c(CN2C(=O)c3ccccc3S(=O)(=O)c3ccc(C(=O)N4CCN(C)CC4)cc32)c1`, the activation is inactive: -13.6%.
As for `O=C(CN1C(=O)COc2ccc(S(=O)(=O)N3CCCCC3)cc21)NCc1ccccc1Cl`, the activation was inactive: -20.8%.
The same measure for `CCOC(=O)c1ccc(Nc2nc(C(=O)OCC)nc3ccccc23)cc1`: inactive: -8.63%; for `CCOc1ccccc1CNC(=O)CSc1n[nH]c(-c2ccccc2Cl)n1`: inactive: -13.3%; for `COc1ccc(CNC(=O)Cc2coc3ccc(C(C)C)cc23)cc1`: inactive: -15.8%.
For `Cc1cc(C)c(S(=O)(=O)NCC(c2ccc(N(C)C)cc2)N2CCc3ccccc32)c(C)c1` (centres undefined), the activation is inactive: -39.8%.
`Cc1cc(OCCn2cc(C(=O)c3ccco3)c3ccccc32)ccc1Cl`: the activation was inactive: -13.8%.
Take `COc1ccccc1NC(=O)CSc1oc(-c2ccco2)nc1S(=O)(=O)c1ccc(Br)cc1`: the activation was inactive: -10.5%.
As to `COc1cccc(CNC(=O)CCc2nc(-c3ccc(C)cc3)no2)c1`, the activation is active: 92.5%.
Regarding `COc1ccc(-c2nnc(SCC(=O)Oc3cccc(C)c3C)o2)cc1`, the activation is inactive: -3.06%.
Regarding `CCOc1ccc(NC(=O)c2cc(CN3CCCC3)on2)cc1`, the activation is inactive: 3.02%.
As for `O=C(Cn1c(=O)oc2cc(S(=O)(=O)NCc3ccccc3)ccc21)NCc1ccc(F)cc1`, the activation is active: 111%.
On to `COc1ccc(/C=C/C(=O)Nc2ccc(Cl)c(Cl)c2)cc1OC`, for which the activation is inactive: 2.06%.
Regarding `Cc1c(C(=O)NCc2ccc(F)cc2)sc2nc3n(c(=O)c12)CCC3`, the activation was inactive: -5.06%.
Regarding `CC(=O)Nc1ccc(NC(=O)Nc2sc3nc4n(c(=O)c3c2C)CCC(C)CC4)cc1` (centres undefined), the activation was inactive: -3.58%.
The same measure for `COc1ccc(-c2ccc(=O)n(CC(=O)Nc3ccc(N(C)C)cc3)n2)cc1`: inactive: -26.2%; for `O=C(Cn1nc(C(F)(F)F)c2c1CCCC2)Nc1ccc(F)c(Cl)c1`: inactive: 43.1%; for `CCOc1ccc2oc(=O)cc(CN3CCN(C(=O)c4ccc(Cl)cc4)CC3)c2c1`: inactive: -19.6%.
As for `CCCCc1nn2c(=O)cc(COC(=O)CNC(=O)c3ccccc3C)nc2s1`, the activation is inactive: -1.5%.
For `Cc1c(NC(=O)c2cc3ccccc3o2)cccc1-c1nc2ccccc2o1`, the activation is inactive: 2.84%.
Turning to `Cc1cccc(N(C)C(=O)C2CCN(S(=O)(=O)c3cccc4nonc34)CC2)c1`, the activation is inactive: -13.2%.
As for `COc1ccc(OC)c(NC(=O)c2ccc(-c3nc(COc4ccccc4)c(C)o3)cc2)c1`, the activation is inactive: -5.91%.
The same measure for `Cc1ccc2nc(Nc3ccc(Br)cc3)nc(-c3ccccc3)c2c1`: inactive: -30.1%.
For `CSc1ccc(C2c3c(oc4ccc(F)cc4c3=O)C(=O)N2c2ccc(C)cn2)cc1` (centres undefined), the activation is inactive: -5.09%.
The same measure for `COc1ccc(OC)c(NC(=O)Cn2cc(C(=O)c3cccs3)c3ccccc32)c1`: inactive: -3.6%.
For the compound `Cc1ccc(C(C)C)c(OCCSc2nc(-c3cccs3)nc3cc(=O)[nH]n23)c1`, the activation is inactive: -2.45%.
Turning to `CCc1cccc(CC)c1NC(=O)Cc1csc(C)n1`, the activation was inactive: -11.6%.
For `CCN(CC)CCOc1ccc(C(O)(Cc2ccc(Cl)cc2)c2ccc(C)cc2)cc1` (centres undefined), the activation is active: 63.1%.
Regarding `CCC(=O)N1CCc2cc(CNS(=O)(=O)c3ccc(Cl)s3)ccc21`, the activation was inactive: -1.3%.
Consider `Cc1cccc(CN2C(=O)c3ccccc3Sc3ccc(C(=O)NCCc4ccccc4)cc32)c1`, for which the activation was inactive: -12.2%.
Turning to `Cc1cc(Nc2cccc(F)c2)n2nc(-c3ccco3)nc2n1`, the activation was inactive: 8.62%.
Regarding `CCC(C)NC(=O)c1sc2nc(C)c(C(=O)Nc3ccc(C)cc3C)c(-c3ccc(Br)cc3)c2c1N` (centres undefined), the activation was inactive: 9.87%.
The figure for `COc1cc(C2NC(=O)N(C)C3=C2C(=O)N(c2ccccc2)C3)ccc1O` (centres undefined) is inactive: -2.66%.
The figure for `Cc1ccc2[nH]c(=O)c3cc(C(=O)N4CCN(c5ccccc5F)CC4)sc3c2c1` is inactive: -8.61%.
In the case of `CC1=C(C(=O)Nc2ccc(C)c(C)c2)C2(CCCCCC2)OC1=O`, the activation was inactive: -14.3%.
`O=C(CSc1nc(-c2ccccc2)cc(=O)[nH]1)Nc1ccccc1F`: the activation was inactive: 22.3%.
As for `COc1ccc(-c2cnc(NCc3ccc(C)cc3)n2C)cc1`, the activation is inactive: -23.1%.
For `Cc1cccc(CSc2ncc(Cl)c(C(=O)Nc3sc4c(c3C#N)CCCC4)n2)c1`, the activation is inactive: -33.9%.
The figure for `COc1ccccc1CNC(=O)c1nn(-c2ccc(C)cc2)c(=O)c2c1c1ccccc1n2C` is inactive: -2.25%.
Take `COc1ccc(CCNC(=O)CSc2nc3ccccc3nc2Cc2ccc(C)cc2)cc1OC`: the activation was inactive: 3.3%.
With `O=C(NCc1ccccc1)c1cccc(NC(=O)N2CCSc3ncccc32)c1`, the activation is inactive: 1.3%.
In the case of `CCCCCCCCCCCCCCCCCC(=O)NCC(COP(=O)([O-])OCC[N+](C)(C)C)OCC` (centres undefined), the activation was inactive: 1.68%.
For `CCN(CC)c1nc2c(S(=O)(=O)c3ccc(C)cc3)nnn2c2ccsc12`, the activation is inactive: -14.4%.
Take `COc1ccccc1NC(=O)CSc1oc(-c2cccs2)nc1S(=O)(=O)c1ccc(C)cc1`: the activation was inactive: -16.7%.
The figure for `CCn1ccc2cc(S(=O)(=O)N3CCC(C(=O)NCc4ccc(OC(C)C)cc4)CC3)ccc21` is inactive: 21.8%; for `O=C(CN1C(=O)COc2ccc(S(=O)(=O)N3CCCCC3)cc21)NCCc1ccc(Cl)cc1` it is inactive: -17.5%; for `CCCSc1nnc2c(n1)OC(CC)N(C(C)=O)c1ccccc1-2` (centres undefined) it is inactive: 1.89%.
Turning to `COc1ccc(-c2nc3ccc(C(=O)NCc4ccccc4)cc3nc2-c2ccc(OC)cc2)cc1`, the activation is inactive: -6.57%.
The same measure for `Cc1ccccc1NC(=O)c1ccccc1NC(=O)c1ccccc1F`: inactive: -18.4%; for `CCOc1ccccc1CNC(=O)Cn1nc(C)c2nn(-c3ccc(Cl)cc3)c(C)c2c1=O`: inactive: -10.3%; for `COC(=O)COc1ccc(Oc2nc(NC(C)(C)C)nc(N3CCOCC3)n2)nn1`: inactive: -7.56%.
Take `CC1=C(c2ccc(C)c(C)c2)S(=O)(=O)N(Cc2ccc(C(=O)NCc3ccc(C)cc3)cc2)C1=O`: the activation was inactive: -7.83%.
For the compound `COc1ccc(Cc2nc3c4cnn(-c5ccccc5Br)c4ncn3n2)cc1`, the activation is inactive: -10.4%.
The same measure for `Cc1cccc(OCC(=O)NCc2ccc3c(c2)CCN3C(=O)c2ccccc2)c1`: inactive: -25.9%; for `COc1ccc(N2CCN(S(=O)(=O)c3c(C)nc4sc(C)cn4c3=O)CC2)cc1`: inactive: -5.78%; for `COc1ccc(-c2noc(-c3ccc(N4CCOCC4)c([N+](=O)[O-])c3)n2)cc1OC`: inactive: 0.748%.
On to `CCOCCCNC(=O)N1CCN(S(=O)(=O)c2ccc3c(ccn3C)c2)CC1`, for which the activation is inactive: 6.82%.
Take `CCOC(=O)c1ccc(NS(=O)(=O)c2cc3c(cc2C)n(C)c(=O)c(=O)n3C)cc1`: the activation is inactive: 17.7%.
As to `Cn1c(=O)c2c(SCC(=O)NCC3CCCO3)nc(-c3ccccc3F)nc2n(C)c1=O` (centres undefined), the activation is inactive: -4.7%.
The figure for `COc1ccc(CNc2nc(-c3ccc(OC)c(OC)c3)cc(C(F)(F)F)n2)cc1` is inactive: -13.3%; for `CCCCSCCCNC(=O)CN1C(=O)COc2ccc(S(=O)(=O)N3CCCC3)cc21` it is inactive: -8.01%; for `CCOc1ccc(CNC(=O)c2cnc(SC)nc2CC)cc1` it is inactive: -10%.
Regarding `CCOc1ccc(NC(=O)CSc2oc(-c3cccs3)nc2S(=O)(=O)c2ccc(Cl)cc2)cc1`, the activation is inactive: -4.2%.
Regarding `O=C(Cn1c(=O)n(-c2ccccc2)c(=O)c2ccc(C(=O)NCc3ccc4c(c3)OCO4)cc21)Nc1ccc(Br)cc1F`, the activation was inactive: -4.88%.
Turning to `COc1ccc(NC(=O)Cn2c(=O)n(-c3ccccc3)c(=O)c3ccc(C(=O)NCc4ccc5c(c4)OCO5)cc32)cc1`, the activation is inactive: -15%.
For `Cc1cc(NC(=O)c2ccc(Cl)c(Cl)c2)ccc1-c1cc2ccccc2oc1=O`, the activation was inactive: 13.7%.
For `Cc1ccc(CNC(=O)CSc2nc3ccsc3c(=O)n2-c2ccc(C(=O)O)cc2)cc1`, the activation is inactive: -13.2%.
As for `CCN(CCCNC(=O)c1cc2cc3cc(OC)ccc3nc2s1)c1ccccc1`, the activation is inactive: -15.5%.
Take `CCCSc1ncc(Cl)c(C(=O)Nc2ccc(CC)cc2)n1`: the activation was inactive: -24.4%.
The same measure for `Oc1cccc(Nc2nc(-c3ccccc3)nc3ccccc23)c1`: active: 60.6%.
The same measure for `CC1(C)C(=O)N(CC(=O)Nc2ccc(OC(F)(F)F)cc2)c2ccccc21`: inactive: -12.5%; for `O=C(CSC1=Nc2ccccc2C2=NC(CCC(=O)NC3CCCCC3)C(=O)N12)Nc1cccc(Cl)c1` (centres undefined): inactive: -16.3%.
Turning to `COc1cccc(NC(=O)CCNS(=O)(=O)c2ccc3c(c2)CCCC(=O)N3)c1`, the activation was inactive: 1.45%.
As for `CCOC(=O)c1c(C)[nH]c(C)c1S(=O)(=O)N(C)CC(=O)Nc1cc(Cl)ccc1OC`, the activation is inactive: -37.1%.
On to `CCOC(=O)C1CCC(CN(Cc2c(Cl)cccc2Cl)S(=O)(=O)c2ccc(F)c(C)c2)CC1` (centres undefined), for which the activation was inactive: -21.7%.
The figure for `NC(=O)C1(N2CCCCC2)CCN(C(=O)Nc2ccc(Cl)c(Cl)c2)CC1` is inactive: -9.82%.
Consider `Cc1ccc(C)c(N2CCN(C(=O)C3CCN(Cc4nc(-c5cccc(Cl)c5)oc4C)CC3)CC2)c1`, for which the activation was inactive: 20.8%.
Turning to `COc1ccc(CNC(=O)c2cc3sccc3n2C)cc1`, the activation is inactive: -8.31%.
For `Cc1ccc2nc(SC(Cc3cc(Cl)ccc3Cl)C(=O)O)[nH]c2c1` (centres undefined), the activation is inactive: 8.86%.
